Source: paper PMC4336329 (PLoS ONE, 2015)
Among all 310,000 compounds or so, about 14,000 (4.5%) showed an effect of 50% or more. Effects have a minus sign here. This is one part of the list.

Target: human ether-à-go-go-related gene (hERG) potassium channel (human, UniProt Q12809)
Assay: primary screen, population patch clamp on CHO cells stably expressing hERG
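Note: peak tail current of the secondary pulse compared with the same well before compound.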

Chain of human ether-à-go-go-related gene (hERG) potassium channel (Q12809 whole entry, looked up): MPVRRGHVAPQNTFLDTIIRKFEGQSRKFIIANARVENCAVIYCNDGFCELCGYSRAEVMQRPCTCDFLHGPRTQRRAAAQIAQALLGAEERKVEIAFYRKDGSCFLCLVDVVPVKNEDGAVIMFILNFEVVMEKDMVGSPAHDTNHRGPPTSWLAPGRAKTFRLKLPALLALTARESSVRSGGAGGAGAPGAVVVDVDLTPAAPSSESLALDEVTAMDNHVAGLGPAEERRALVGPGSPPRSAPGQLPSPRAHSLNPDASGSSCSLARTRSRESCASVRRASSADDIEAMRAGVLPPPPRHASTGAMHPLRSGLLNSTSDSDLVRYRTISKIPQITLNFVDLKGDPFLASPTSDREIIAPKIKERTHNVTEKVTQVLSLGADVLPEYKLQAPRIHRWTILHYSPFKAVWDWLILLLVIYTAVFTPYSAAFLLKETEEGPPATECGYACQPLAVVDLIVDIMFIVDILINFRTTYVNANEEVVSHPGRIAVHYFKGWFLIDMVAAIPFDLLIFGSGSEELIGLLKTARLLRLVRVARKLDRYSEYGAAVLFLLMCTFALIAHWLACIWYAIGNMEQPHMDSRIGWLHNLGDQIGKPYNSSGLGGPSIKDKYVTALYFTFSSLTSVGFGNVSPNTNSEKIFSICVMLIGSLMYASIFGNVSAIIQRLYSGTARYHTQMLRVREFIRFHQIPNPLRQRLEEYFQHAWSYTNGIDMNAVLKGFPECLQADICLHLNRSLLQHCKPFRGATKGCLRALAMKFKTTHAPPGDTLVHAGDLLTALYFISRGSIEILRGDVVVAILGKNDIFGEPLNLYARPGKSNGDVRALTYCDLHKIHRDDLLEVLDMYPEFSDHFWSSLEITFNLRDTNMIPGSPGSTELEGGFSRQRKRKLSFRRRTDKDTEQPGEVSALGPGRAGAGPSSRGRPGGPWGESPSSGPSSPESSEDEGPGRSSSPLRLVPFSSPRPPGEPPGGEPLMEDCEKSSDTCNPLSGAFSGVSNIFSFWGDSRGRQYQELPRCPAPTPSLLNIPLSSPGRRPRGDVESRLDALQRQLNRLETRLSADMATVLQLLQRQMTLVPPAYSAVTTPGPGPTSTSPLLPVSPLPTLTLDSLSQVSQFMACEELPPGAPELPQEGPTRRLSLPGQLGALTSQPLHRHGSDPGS

Compound	hERG current change (%, negative = inhibition) at 10uM
Cc1ccc2cc3cc(C(=O)N4CCN(Cc5ccccc5)CC4)sc3nc2c1	17.6%
COc1ccc(/C=C(/NC(=O)c2ccccc2)C(=O)N2CCOCC2)cc1OC	22.2%
O=C(c1cc2c(=O)n3ccccc3nc2s1)N1CCN(Cc2ccccc2)CC1	-27.7%
Cc1cc(C)cc(C(=O)NC(CC(N)=O)c2ccc(N3CCN(c4ccccn4)CC3)c([N+](=O)[O-])c2)c1 (stereo not shown)	15.7%
COc1ccc(CNc2nc(NCc3ccc(OC)cc3)n(S(C)(=O)=O)n2)cc1	-12.8%
COc1cc(C(=O)NCCN2CCOCC2)cc(OC)c1OC	8.25%
CCn1c(C)cc(C(=O)CSc2nnnn2C2CCCC2)c1C	-53.5%
CCC(C)NC(=O)CSc1c2c(nc3ccccc13)CCCC2 (stereo not shown)	-7.98%
CCC(CC)c1nnc(NC(=O)CN2C(=O)C3C4C=CC(C4)C3C2=O)s1 (stereo not shown)	8.97%
O=C(CN1CCN(c2cccc(Cl)c2)CC1)Nc1ccc([N+](=O)[O-])cc1C(=O)Nc1ccccc1F	14.4%
CCCCC(=O)NCCc1cc2c(OC)ccc(OC)c2[nH]c1=O	4.53%
CN(C)c1cc[n+](CC(=O)c2ccc(-c3ccccc3)cc2)cc1.[Cl-]	-2.97%
CC(=O)Nc1ccc(S(=O)(=O)N2CCN(C(=O)c3ncoc3-c3cccc(C)c3)CC2)cc1	-14%
O=C(NCC(c1cccnc1)N1CCN(c2ccccc2F)CC1)c1ccco1 (stereo not shown)	-0.92%
COc1ccccc1NC(=O)C(=O)NCC1COc2ccccc2O1 (stereo not shown)	6.4%
CC(=O)c1c(N2CCN(c3ccc(F)cc3)CC2)nc(=S)n(-c2ccccc2)c1C	-75%
Cc1cc(NC(=O)c2ccc(F)cc2)ccc1NC(=O)c1ccco1	2.98%
Cc1ccc(NP(=O)(c2ccc(N(C)C)cc2NC(=O)c2cccs2)N2CCOCC2)cc1 (stereo not shown)	-2.84%
O=C(COC(=O)c1ccc2[nH]c3c(c2c1)CCCC3)Nc1ccccc1	23.3%
CCN(CC)C(=O)C(=O)N/N=C/c1ccc(F)cc1	18.7%
COc1cccc(/C=N/Nc2ccc(C(=O)O)cc2)c1O	2.34%
C/C(=N\NC(=O)CNc1cccc(C(F)(F)F)c1)c1ccc(Br)cc1	7.43%

Compound	hERG current change (%, negative = inhibition) at 10uM
CCn1c(SCC(=O)NC2CC2)nnc1-c1cccc(OC)c1	-66.6%
Cc1ccccc1C(=O)NC1CCN(CC(=O)Nc2c(C)cccc2C)CC1	-3.3%
O=C(CSc1nnc(CN2CCOCC2)n1-c1ccccc1)N1CCc2ccccc21	-2.94%
COc1ccccc1C(=O)NC(CCSC)C(=O)N1CCN(C/C=C/c2ccccc2)CC1 (stereo not shown)	-109%
CC(CO)(CO)N=Cc1c(O)n(-c2cccc3ccccc23)c(=O)[nH]c1=O	18%
O=C(NNC(=O)c1cc(OCC(F)(F)F)ccc1OCC(F)(F)F)c1ccc(Cl)c(Cl)c1	15.8%
COc1cc(NC(=O)COC(=O)CCc2cc(OC)c(OC)c(OC)c2)cc(OC)c1	11.9%
CCC(=O)Nc1cc(C(=O)NCC2CCCN2CC)c(OC)cc1N(C)C (stereo not shown)	-10.4%
C1=C(CCNCc2ccccc2)CCCC1.Cl	5.16%
Cc1ccc(CNc2nc3ccccc3n2C)cc1	-24.7%
COc1ccc(NC(=O)C23CC4CC(C2)CC(n2cnc(Br)n2)(C4)C3)c(C)c1	-9.06%
CCN1C(=O)[C@H]2[C@@H](c3ccc(C)cc3)N3C(=O)N(c4ccccc4)C(=O)[C@@]3(Cc3ccccc3)[C@H]2C1=O	-17.3%
CN(Cc1ccccn1)C(=O)C1CCC(=O)N(Cc2cccc(F)c2)C1 (stereo not shown)	6.47%
COc1cccc(NC(=O)c2ccc(NC(=O)C(C)C)cc2)c1	11.7%
Cc1ccc(OC(F)F)c(NC(=O)Nc2ccc3c(c2)OCO3)c1	-0.45%
CC(=O)Nc1ccc(OC/C=C(\C)Cl)cc1	2.75%
CN(C)C(CNC(=O)c1cc(Br)ccc1Cl)c1ccco1 (stereo not shown)	3.01%
Cc1cc(C(=O)CN2C(=O)CN(C)C2=O)c(C)n1-c1cccc(S(=O)(=O)N2CCOCC2)c1	-49.8%
COc1cccc(/C=C/C(=O)OCC(=O)Nc2cc(C(F)(F)F)ccc2Cl)c1	8.14%
O=C(Nc1ccccc1N1CCOCC1)c1cnccn1	-11%
CC(=O)c1cc(C(=O)Nc2ccc3ccccc3c2)c(C)o1	13.8%
